Consider 52 compounds from PMC6919601, “Identification of Plasmodium dipeptidyl aminopeptidase allosteric inhibitors by high throughput screening” (PLoS ONE, 2019).

About 230 (0.21%) of roughly 110,000 compounds showed an effect of 50% or more. This is one part of the list.
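Note: 30 min substrate incubation versus DMSO and 10 µM JCP410 controls.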

In the assay the target is DPAP1 (Plasmodium falciparum, UniProt Q8IIJ9). The assay can be described thus: primary screen, percent inhibition; read by cleavage of a fluorogenic dipeptide substrate; higher = more effect of the substance. Set-up: species or system P. falciparum D10 trophozoite lysates; single well.
Chain of DPAP1 (Q8IIJ9 whole entry, looked up): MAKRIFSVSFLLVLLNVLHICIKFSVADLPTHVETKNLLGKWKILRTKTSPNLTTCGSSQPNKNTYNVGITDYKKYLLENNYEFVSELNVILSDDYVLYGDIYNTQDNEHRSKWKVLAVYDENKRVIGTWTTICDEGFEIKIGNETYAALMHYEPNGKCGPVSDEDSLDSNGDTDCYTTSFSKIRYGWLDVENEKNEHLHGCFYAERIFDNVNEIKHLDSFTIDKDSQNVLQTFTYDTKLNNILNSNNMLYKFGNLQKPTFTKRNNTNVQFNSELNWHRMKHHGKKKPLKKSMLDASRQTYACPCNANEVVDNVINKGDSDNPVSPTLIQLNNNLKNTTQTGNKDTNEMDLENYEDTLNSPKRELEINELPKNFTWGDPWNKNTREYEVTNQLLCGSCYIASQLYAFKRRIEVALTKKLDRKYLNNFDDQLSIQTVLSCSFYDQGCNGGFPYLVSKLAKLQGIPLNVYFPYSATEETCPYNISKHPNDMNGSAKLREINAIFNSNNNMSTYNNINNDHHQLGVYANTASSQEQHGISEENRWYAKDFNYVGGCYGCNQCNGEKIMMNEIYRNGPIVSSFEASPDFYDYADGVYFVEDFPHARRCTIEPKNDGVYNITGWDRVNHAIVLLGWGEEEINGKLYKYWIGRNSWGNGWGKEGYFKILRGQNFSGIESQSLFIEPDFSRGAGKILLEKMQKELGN
As to `CC1=C(C(=O)Nc2ccccc2)C(c2ccc(Cl)cc2)NC(=O)N1` (stereo not shown), the “% Inhibition @ 10 uM” value was -4.98%.

`Cc1ccc(OCC(=O)NC2CC(C)(C)NC(C)(C)C2)c(Br)c1`: the “% Inhibition @ 10 uM” value is reported as -5.28%.

Consider `COc1cc(C(=O)Nc2cc(C)c(OCC(=O)N3CCOCC3)c(C)c2)cc(OC)c1OC`, for which the “% Inhibition @ 10 uM” value is 5.12%.

Take `COC(=O)c1cccc(NC2=C(N3CCCCC3)C(=O)c3ccccc3C2=O)c1`: the “% Inhibition @ 10 uM” value is -4.75%.

As to `Cc1ccc2n1CCNC2`, the “% Inhibition @ 10 uM” value is -2.77%.

For `Cc1ccc(C)c(-c2csc(NC(=O)CSc3ccccc3)c2C(N)=O)c1`, the “% Inhibition @ 10 uM” value is 1.02%.

Turning to `O=C(NCCC1=CCCCC1)C1CCN(C(=O)c2ccc(F)cc2)CC1`, the “% Inhibition @ 10 uM” value is -1.92%.

With `Cc1c(-c2cccc(Cl)c2)nc2ccccc2c1C(=O)N1CCN(C)CC1`, the “% Inhibition @ 10 uM” value was 0.389%.

In the case of `CCC(=O)c1cn(S(=O)(=O)c2ccc(C)cc2)c2ccccc12`, the “% Inhibition @ 10 uM” value is given as 2.03%.

`COc1cccc(/C=C2/SC(Nc3ccccc3)=NC2=O)c1OC`: the “% Inhibition @ 10 uM” value was determined as 8.89%.

For `COc1ccc(OC)c(CNCc2ccc3c(c2)OCO3)c1`, the “% Inhibition @ 10 uM” value was -3.4%.

As to `Cc1c(C=C2C(=O)NC(=O)NC2=O)c(=O)n(-c2ccccc2)n1C`, the “% Inhibition @ 10 uM” value is 2.51%.

With `COc1ccc(CNC2CCCCC2C)c(OC)c1` (stereo not shown), the “% Inhibition @ 10 uM” value is reported as -2.21%.

Take `c1ccc(Cn2c3ccccc3c3nnc(SCCN4CCOCC4)nc32)cc1`: the “% Inhibition @ 10 uM” value worked out at 9.29%.

Take `CC(C)(C)c1nc(CN2CCCCC2)cc(CN2CCCCC2)c1O`: the “% Inhibition @ 10 uM” value amounted to 7.39%.

In the case of `COc1ccc(-c2csc(/C(C#N)=C/c3ccc(OC)c(O)c3)n2)cc1`, the “% Inhibition @ 10 uM” value was determined as 2.01%.

As for `CC(C)C[C@H](NC(=O)c1ccc(N2CCCC2)nc1)C(=O)NCC#N`, the “% Inhibition @ 10 uM” value was determined as 7.72%.

As for `COc1ccc(CN(C(=O)c2ccco2)c2ccccc2C(=O)O)cc1`, the “% Inhibition @ 10 uM” value was found to be 1.67%.

As for `O=[N+]([O-])c1ccc(NC2OC(CO)CC(O)C2O)cc1` (stereo not shown), the “% Inhibition @ 10 uM” value is recorded as -1.74%.

As for `COc1ccc(-c2csc(NC(=O)c3ccccc3OC)c2C(=O)O)cc1`, the “% Inhibition @ 10 uM” value was -2.17%.

`COc1cccc(-c2cc(C(=O)N3CCn4c3nc3ccccc34)[nH]n2)c1`: the “% Inhibition @ 10 uM” value is given as -2.18%.

In the case of `CCC(C)NC(=O)C(=O)Nc1ccc(Cl)cc1` (stereo not shown), the “% Inhibition @ 10 uM” value is on record as 6.08%.

In the case of `COc1ccc(OCCCC(=O)Nc2ccc(N(C)C)cc2)cc1`, the “% Inhibition @ 10 uM” value is reported as -2.09%.

With `Cc1ccc(-c2cc(C(=O)NCCN3CCOCC3)c3ccccc3n2)s1`, the “% Inhibition @ 10 uM” value was found to be 0.726%.

As to `O=C(c1cccc(Cl)c1)N1CCN(c2ccccc2)CC1`, the “% Inhibition @ 10 uM” value came to 4.38%.

As for `CC1CCCN(S(=O)(=O)c2c[nH]cn2)C1` (stereo not shown), the “% Inhibition @ 10 uM” value was 6.08%.

Turning to `Cc1ccc(C(CN)CC(=O)O)cc1` (stereo not shown), the “% Inhibition @ 10 uM” value is reported as -4.08%.

In the case of `O=C(c1ccccc1Br)N1CCN(c2ccc(Cl)cc2)CC1`, the “% Inhibition @ 10 uM” value was -1.38%.

For the compound `CSc1ncc(Cl)c(C(=O)Nc2nc3ccc(C)cc3s2)n1`, the “% Inhibition @ 10 uM” value is on record as -2.85%.

With `Cc1ccc(CS(=O)Cc2ccc(C(=O)NCCCOC(C)C)o2)cc1` (stereo not shown), the “% Inhibition @ 10 uM” value is -0.716%.

As for `Cc1nn(CCCC(=O)NC2CCCCCC2)c(=O)c2c1sc1ccccc12`, the “% Inhibition @ 10 uM” value was -10.2%.

For the compound `Cc1ccc(S(=O)(=O)N2C=Cc3ccccc3C2C#N)cc1` (stereo not shown), the “% Inhibition @ 10 uM” value is reported as -5.62%.

`COc1cccc2c(O)c(-c3ccccc3)c(O)nc12`: the “% Inhibition @ 10 uM” value was 0.408%.

With `Cc1cc(Cl)cc(Cl)c1OCCCCCN1CCNCC1`, the “% Inhibition @ 10 uM” value is on record as -0.473%.

In the case of `Cc1cc(C)cc(NC(=O)CSc2nc(C)cc(O)n2)c1`, the “% Inhibition @ 10 uM” value came to 3.97%.

With `O=C(Nc1ccc(F)cc1)c1ccc(Cl)c(Cl)c1`, the “% Inhibition @ 10 uM” value is given as -0.294%.

Turning to `CC(C)NC(=O)c1c2c(nn1C)-c1ccccc1SC2`, the “% Inhibition @ 10 uM” value is reported as -2.19%.

For the compound `COCCNC(=O)c1cnn2c(O)c(Cc3ccc(Cl)cc3)c(C)nc12`, the “% Inhibition @ 10 uM” value worked out at 0.718%.

In the case of `COCCN1Cc2cccc(C(=O)NCc3ccc(F)cc3)c2C1=O`, the “% Inhibition @ 10 uM” value is 1.23%.

Regarding `CC(=O)c1c2c(n3cc4ccccc4cc13)C(=O)c1ccccc1C2=O`, the “% Inhibition @ 10 uM” value is 0.561%.

Regarding `C=C(C)Cn1c(SCC(N)=O)nc2c1c(=O)n(C)c(=O)n2C`, the “% Inhibition @ 10 uM” value is given as 1.82%.

As to `O=C(CCc1nc2cccnc2n1Cc1ccccc1)NCc1ccccc1`, the “% Inhibition @ 10 uM” value is given as -1.08%.

For the compound `COc1cc(CNC2C3CC4CC(C3)CC2C4)c([N+](=O)[O-])cc1OC` (stereo not shown), the “% Inhibition @ 10 uM” value is recorded as -4.04%.

In the case of `COc1ccccc1C(=O)ON1C(=O)CCC1=O`, the “% Inhibition @ 10 uM” value is listed as -1.03%.

For the compound `Nc1ccccc1NC(=S)Nc1ccccc1`, the “% Inhibition @ 10 uM” value is -1.29%.

On to `COc1ccc2c(c1)C1(SCCCS1)c1c(c(=O)c1=O)O2`, for which the “% Inhibition @ 10 uM” value is on record as 8.4%.

Turning to `CCc1nc2ccc(C(=O)NCc3ccc(OC(C)C)cc3)cc2nc1CC`, the “% Inhibition @ 10 uM” value came to 7.91%.

Turning to `CCCCCC(=O)Nc1ccccc1-n1cccc1`, the “% Inhibition @ 10 uM” value was -1.36%.

With `CCOC(=O)c1c(S(=O)(=O)NCCc2ccc(Cl)cc2)c(C)n(C)c1C`, the “% Inhibition @ 10 uM” value came out at 0.0065%.

Regarding `COc1ccc(N2CCN(CC(=O)Nc3nc(-c4ccccc4)cs3)CC2)cc1`, the “% Inhibition @ 10 uM” value is given as -4.15%.

With `CSc1ccc2c(c1)C(N1CCN(CCCO)CC1)=Cc1ccccc1S2`, the “% Inhibition @ 10 uM” value worked out at 1.4%.

For `CN(C)CCNC(=O)C12CCC3CC(CC(C3)C1)C2`, the “% Inhibition @ 10 uM” value is reported as -1.54%.
